# According to paper PMC7819943, “Rice protein-binding microarrays: a tool to detect cis-acting elements near promoter regions in rice”:
# The other results are listed elsewhere or left out.
# Biological target: T1, OsWOX13 (Oryza sativa, UniProt Q5QMM3 1-267)
# T1 sequence: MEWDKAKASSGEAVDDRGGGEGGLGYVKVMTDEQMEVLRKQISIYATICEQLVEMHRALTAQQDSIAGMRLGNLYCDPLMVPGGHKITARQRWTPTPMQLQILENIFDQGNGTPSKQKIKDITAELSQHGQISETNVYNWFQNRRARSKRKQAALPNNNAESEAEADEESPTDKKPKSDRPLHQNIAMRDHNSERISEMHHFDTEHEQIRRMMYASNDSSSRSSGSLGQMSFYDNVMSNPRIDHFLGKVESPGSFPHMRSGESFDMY
# Experiment: protein-binding microarray (RPBM); PBS, 2% BSA, 51.3 ng/ul salmon testes DNA, 50 uM zinc acetate, 200 nM TF, 25 C, 1 h; high values mean tight binding
# Settings: protein: recombinant; tags: N-terminal polyhistidine and DsRed monomer fusion (pET32a); label: CyDye5-dUTP incorporated in the synthesized complementary strand; 3' TTTTT single-stranded linker to array surface; dsDNA, one strand shown
# Method in brief: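 Transcription factors were made in E. coli BL21-CodonPlus as N-terminal fusions to a polyhistidine tag and DsRed, then purified on Ni–NTA. After primer extension with Cy5-dUTP and blocking with 2% BSA, a custom Agilent array was exposed for 1 h at 25 °C to 200 nM protein in PBS, 2% BSA, salmon testes DNA and 50 µM zinc acetate. Washed arrays were scanned on an Axon 4000B, and the binding signal is per-feature fluorescence intensity in arbitrary units.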
row,Sequence,binding signal
1,TACTATGATTTTCTTTGAATTCAGGTCCTTGCGATTCCAGCGGAGTCACCTAGTGCAG,3510 fluorescence intensity (a.u.)
2,TTTAAACCACTATAATTTAATACGTAAAGAAACAGCAACTCGGAGTCACCTAGTGCAG,3680 fluorescence intensity (a.u.)
3,TTTTATTAAATTTAACATTGAATATATTCTCTGATAGTTTCGGAGTCACCTAGTGCAG,8320 fluorescence intensity (a.u.)
4,TTGATATAATATTCTATTAATCCTATTAAGTCGTGGGCCGCGGAGTCACCTAGTGCAG,5340 fluorescence intensity (a.u.)
5,CTTTGACATAACAACCTTCCCATAACTCCTGTTTTAACCCCGGAGTCACCTAGTGCAG,9330 fluorescence intensity (a.u.)
6,CCGGATTAATAGATCGACCGATCGATCACACTCGCCTCCACGGAGTCACCTAGTGCAG,21900 fluorescence intensity (a.u.)
7,CGCGTTGATTAATTAGTCAGTTCGTTAACAACCTCGACTACGGAGTCACCTAGTGCAG,53000 fluorescence intensity (a.u.)
8,AGCCAACTGTCGACTTCAAATTAACTATAGTTAATTTTAGCGGAGTCACCTAGTGCAG,6640 fluorescence intensity (a.u.)
9,ACCCGGCCCCACGCGTCAGTGAAACCCAACAGTCTCCTGACGGAGTCACCTAGTGCAG,15200 fluorescence intensity (a.u.)
10,ATGATGATTGTTAGTGGATGATGATGTGTCATCTTGTTAACGGAGTCACCTAGTGCAG,38400 fluorescence intensity (a.u.)
11,ATTATTTCTTAATTGGATTCTAGTAACAGTTAATTAAGGACGGAGTCACCTAGTGCAG,23200 fluorescence intensity (a.u.)
12,CAGAGATTGAGAATAATCAAGCAATCAGTTCCAAACAAACCGGAGTCACCTAGTGCAG,16500 fluorescence intensity (a.u.)
13,AATCAATCATTTGTTTCTTACTTGGAGTTCGCCTGGTTACCGGAGTCACCTAGTGCAG,33600 fluorescence intensity (a.u.)
14,TCTTTGACTTAACTGCACCCAAGTTATTGCATGCTCTCTTCGGAGTCACCTAGTGCAG,4900 fluorescence intensity (a.u.)
15,GTTTGCTTCCATCATTCAATCATTACCTTTCAGGAAGATGCGGAGTCACCTAGTGCAG,10600 fluorescence intensity (a.u.)
16,ATTAATAGATCGGTATTACATGATTTGAAGTTTTGAACTCCGGAGTCACCTAGTGCAG,13200 fluorescence intensity (a.u.)
17,ACTCCTGTTTAATTATTATTATTGGCTATTCCTCCCTCGCCGGAGTCACCTAGTGCAG,12300 fluorescence intensity (a.u.)
18,ATGATTACAATATATTAGAGTTATAACTATCCTCGATGAACGGAGTCACCTAGTGCAG,18200 fluorescence intensity (a.u.)
19,CATTGATGGATTCACAACACCCGCTCTTGCATGAACCGATCGGAGTCACCTAGTGCAG,18100 fluorescence intensity (a.u.)
20,GATGGGCCTATTACAATTATTGATTGTTGTTATGTTTGCACGGAGTCACCTAGTGCAG,12800 fluorescence intensity (a.u.)
21,GATATTCTAGTTACCACTTAATTAGCAGCCCTGATATTTGCGGAGTCACCTAGTGCAG,4610 fluorescence intensity (a.u.)

row,Sequence,binding signal
1,AAGCTAATCGGCAAAGAAAATTGAATTGATCTACTTCTAACGGAGTCACCTAGTGCAG,3650 fluorescence intensity (a.u.)
2,TTATATAAATTGGCTATTAGATTGGCTACAAATGAATTAGCGGAGTCACCTAGTGCAG,31600 fluorescence intensity (a.u.)
3,CTAAAATTGAGAAATTGAGGGAGTATTTATCTGAAATCATCGGAGTCACCTAGTGCAG,6180 fluorescence intensity (a.u.)
4,ATGGTGGCTGAAGGGGTTGGATTGGATGAGGTGACATATACGGAGTCACCTAGTGCAG,3360 fluorescence intensity (a.u.)
5,TGTATTTAAAATTGATACATCTAGCCTAATTTCAACCGAACGGAGTCACCTAGTGCAG,4970 fluorescence intensity (a.u.)
6,TCAGTTAATTAGTAGTTGCTTGACTGCTGCTAAGCATCCCCGGAGTCACCTAGTGCAG,48300 fluorescence intensity (a.u.)
7,AATTTTACATTAAATTGCACAGTCAAAAGCTGCATGGTTACGGAGTCACCTAGTGCAG,3820 fluorescence intensity (a.u.)
8,TTATTATTTATTAGATAATGGATAGAAATCTACAAGTGGACGGAGTCACCTAGTGCAG,6060 fluorescence intensity (a.u.)
9,GTAAATACACTAAAATTACATATGTAATTTAAGGACTTACCGGAGTCACCTAGTGCAG,12300 fluorescence intensity (a.u.)
10,CCAGACAATGCTTTGATTATCCATTGCAAGCATAACTAGTCGGAGTCACCTAGTGCAG,6770 fluorescence intensity (a.u.)
11,AATATCAATTTGTTGCAACATTAGCGGCATGTTTTAGTTTCGGAGTCACCTAGTGCAG,4170 fluorescence intensity (a.u.)
12,GTCCCATAATAATTAGTTCTGGATTGTTTAGCCTATACTACGGAGTCACCTAGTGCAG,17700 fluorescence intensity (a.u.)
13,TCGTTTCAATTTCAATTAAACTTCTAATTTTGATGTGAACCGGAGTCACCTAGTGCAG,25100 fluorescence intensity (a.u.)
14,TAGAGATTTAATTGTAACAAATAGGGCGCTGTATTCGGATCGGAGTCACCTAGTGCAG,15100 fluorescence intensity (a.u.)
15,ATGCACTAATTATATGCTATGCACACTGTTTAAGCATCATCGGAGTCACCTAGTGCAG,12000 fluorescence intensity (a.u.)
16,TGATAATTTATATTGTATTTCATTGTAGCCTATGGCTGTGCGGAGTCACCTAGTGCAG,24400 fluorescence intensity (a.u.)
17,GGGACTAACTTCTCAATCTAACTCCAGAAGCAGAGTTTGGCGGAGTCACCTAGTGCAG,8000 fluorescence intensity (a.u.)
18,CCTCAACAAAATTTACAAATTTAATATCAGGATCAGGGAGCGGAGTCACCTAGTGCAG,6520 fluorescence intensity (a.u.)
19,TAATCTTGAATTATTGATTTATTTATGGCTTCAGCTTTCACGGAGTCACCTAGTGCAG,7480 fluorescence intensity (a.u.)
20,ATCTGATTTTATATTCTTATATTTTAGGATGGAGGGAGTACGGAGTCACCTAGTGCAG,12900 fluorescence intensity (a.u.)
21,TAAAATTTGATATTTTAGTGGTAATCTGAACGGGTCCTCGCGGAGTCACCTAGTGCAG,4810 fluorescence intensity (a.u.)
